Measured values published in PubChem BioAssay AID1240 (Sanford-Burnham Center for Chemical Genomics, 2008).
Hit rate of the full screen: of about 50,000 compounds, about 800 (1.6%) showed an effect of 50% or more. This is one part of the list.

Target: Bcl-2-like protein 10 (Homo sapiens) (UniProt Q9HD36)
Experiment: TR3 peptide-Bcl-B binding displacers, biochemical primary FP assay, phenotype converters (AID 1240);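 further: 0% = Bcl-B with tracer peptide and DMSO and 100% = tracer peptide lacking Bcl-B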
Settings: GST-Bcl-B / FITC-TR3 peptide fluorescence polarization; stronger effect = higher value; compound at 3.75 mg/L

Sequence of UniProt Q9HD36 (Q9HD36 whole entry, looked up): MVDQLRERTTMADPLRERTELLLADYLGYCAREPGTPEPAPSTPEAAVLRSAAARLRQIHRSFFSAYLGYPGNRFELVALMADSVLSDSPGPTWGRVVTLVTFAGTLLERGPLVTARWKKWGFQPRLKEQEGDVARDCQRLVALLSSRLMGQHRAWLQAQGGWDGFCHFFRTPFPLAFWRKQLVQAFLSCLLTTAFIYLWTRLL

Row | SMILES | displacement
1 | CN(C)CCCNC(=O)c1c(Cl)cccc1Cl | 11.4%
2 | COC(=O)c1ccc(N2C(=O)c3ccccc3C2=O)cc1 | 1.6%
3 | O=C(CCc1ccccc1)Nc1ccc(Cl)cc1 | 5.7%
4 | CCC(CCC(=O)O)NC(=O)c1ccccc1 (stereo unspecified) | -4.8%
5 | CC(C)COc1ccc(C(=O)Nc2ccc(Cl)c(Cl)c2)cc1 | 2.1%
6 | CC1=C/C(=N/OS(=O)(=O)c2ccccc2)C=CC1=O | 28.6%
7 | C/C(=N\NC(=O)c1cc(C(C)(C)C)[nH]n1)c1ccc(Cl)cc1 | -14.9%
8 | COc1ccc(N=C(NOC(C)=O)c2ccc(Cl)cc2)c(OC)c1 | 17%
9 | O=C(NCc1cccnc1)C(c1ccccc1)c1ccccc1 | -14.2%
10 | O=C(c1ccccc1)N1CN2CN(C(=O)c3ccccc3)CC(NC(=S)Nc3ccccc3)(C2)C1 | -22.4%
11 | O=C1c2ccc(Oc3ccc4c(c3)C(=O)N(CCCO)C4=O)cc2C(=O)N1CCCO | -6.5%
12 | COc1ccc(/C=C2/SC(=O)N(CNc3cc(F)ccc3C)C2=O)cc1OC | 3.4%
13 | COc1ccc(-n2c(SC)nc3sc4c(c3c2=O)CCCC4)cc1 | -1.5%
14 | CCC(CO)Nc1cc(N2CCOCC2)ccc1[N+](=O)[O-] (stereo unspecified) | 10.9%
15 | CC(=O)Oc1cc(N2CCOCC2)c(OC(C)=O)c2c1C(=O)c1ccccc1C2=O | 19.1%
16 | CC(=O)Nc1ccc(S(=O)(=O)Nc2ccc(F)cc2F)cc1 | 2%

Row | SMILES | displacement
17 | CCn1c2ccccc2c2cc(CNC(C)COC)ccc21 (stereo unspecified) | 6.3%
18 | O=C(O)CCCC(=O)Nc1nc(-c2ccc([N+](=O)[O-])cc2)cs1 | -2.3%
19 | S=C(NCC1(c2ccccc2)CCOCC1)Nc1ccccc1 | -7.8%
20 | Cc1c(Nc2nc(-c3ccccc3)c(NC(=O)c3ccccc3)s2)c(=O)n(-c2ccccc2)n1C | 3.1%
21 | CCN(CC)c1ccc(/C=N/NC(=O)CSc2nc3ccccc3n2Cc2ccccc2)c(O)c1 | 0.4%
22 | COc1ccc(Br)cc1C(=O)Nc1ccc(Cl)cc1 | 1.9%
23 | CCOc1cc(C=C2C(=O)NC(=S)NC2=O)ccc1OCCOc1ccccc1C | -3.3%
24 | N/C(=N\N=C\c1cccc(O)c1)c1nonc1N | -2.2%
25 | Cc1ccc(C(=O)O/N=C(\N)Cc2cccs2)cc1[N+](=O)[O-] | 1.6%
26 | COC(=O)C1=C(C)NC(C)=C(C(=O)OC)C1c1ccc(OCC(N)=O)cc1 | 8.6%
27 | Cc1cccnc1NC(=O)COc1ccc2ccccc2c1 | -0.5%
28 | O=C(Nc1ccc(F)c([N+](=O)[O-])c1)C1CCCC1 | -8.3%
29 | CC(=O)Oc1c(-c2ccccc2)c2nc3ccccc3nc2c2ccccc12 | 18.9%
30 | CC(=O)c1ccc(NC(=O)C2CC(=O)N(C3CCCCC3)C2)cc1 (stereo unspecified) | 11.1%
31 | Oc1[nH]c2ccc(Br)cc2c1N=Nc1ccc2ccccc2n1 | 1.8%
